Measured values taken from PubChem BioAssay AID485294 (National Center for Advancing Translational Sciences (NCATS), 2010).
Screen size: about 370,000 compounds; about 150 (0.041%) were called active. The shares of active, inactive and inconclusive entries below differ from those in the screen. The call rests on the fitted dose curve; in most records, active means well fitted inhibition curve with a large enough effect; inconclusive means small, poorly fitted or top-dose-only effect; inactive means flat fitted curve, though single readings scatter. Potencies of inconclusive entries are left out as doubtful fits.

What follows are compounds tested against Beta-lactamase (Escherichia coli (strain K12)) (UniProt P00811) (assay: qHTS Inhibitors of AmpC Beta-Lactamase (assay with detergent)). Details: AmpC hydrolysis of nitrocefin, absorbance 480 nm, 0.01% Triton; series mostly up to 114 µM.
How it was run: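 AmpC (5.3 nM in the dispensed reagent) in 20 mM phosphate pH 7.0 with 0.01% (detergent screen) or 0.0001% Triton X-100 was preincubated with compounds for 15 min at room temperature. Nitrocefin was then added from an 800 uM solution, and hydrolysis was followed at 480 nm.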
Further: nearly all actives have a fitted effect of over 25% in size.
Potency means the concentration at half of the fitted maximal effect; tags describe the fitted curve by direction and shape.

Sequence of UniProt P00811 (P00811 whole entry, looked up): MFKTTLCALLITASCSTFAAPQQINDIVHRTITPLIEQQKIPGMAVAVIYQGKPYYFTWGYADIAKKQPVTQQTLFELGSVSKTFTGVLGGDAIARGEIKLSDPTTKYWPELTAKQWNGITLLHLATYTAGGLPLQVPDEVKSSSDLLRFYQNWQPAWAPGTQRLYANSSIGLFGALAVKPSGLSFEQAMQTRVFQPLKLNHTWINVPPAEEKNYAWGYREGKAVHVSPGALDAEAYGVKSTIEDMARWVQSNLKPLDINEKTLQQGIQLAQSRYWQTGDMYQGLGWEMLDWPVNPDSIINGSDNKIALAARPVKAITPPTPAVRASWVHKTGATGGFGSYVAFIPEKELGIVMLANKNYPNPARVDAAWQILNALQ

SMILES	Potency
C=CCn1c(NC(=O)c2ccco2)c(S(=O)(=O)c2ccccc2)c2nc3ccccc3nc21	inconclusive [inhibitor, partial curve, poor fit]
COc1cc(C#Cc2c(-c3cncn3C)n(C)c3ccc(-c4ccc(OC)c(OC)c4)cc23)cc(OC)c1	inactive
Cc1ccc(C2(c3noc(CN(C)CCCN4CCOCC4)n3)CCCC2)cc1	inactive
CC(C)n1nnnc1SCC(=O)N1CCOCC1	inconclusive [inhibitor, full curve, poor fit]
CC(C)c1ccc(N2C(=O)NC(=O)/C(=C\C=C\c3ccco3)C2=O)cc1	inconclusive [inhibitor, single point]
S=C(NCCc1ccccc1)Nc1ccc(Nc2ccccc2)cc1	inactive
CCC(C)NC(=O)c1ccccc1-c1nc2ccccc2[nH]1 (stereo unspecified)	inactive
CCc1cccc(CC)c1NC(=O)CN(CC(=O)O)CC(=O)O	inconclusive [inhibitor, full curve]
CCC(C)Sc1nnc(CSc2nc(C)cc(C)n2)n1C (stereo unspecified)	inconclusive [inhibitor, full curve, poor fit]
COc1cccc(N2CC(NC(=O)c3ccc4ccccc4c3)CC2=O)c1 (stereo unspecified)	inconclusive [inhibitor, full curve, poor fit]
Cc1ccc(Cn2c(SCC(C)C)nc3c2c(=O)[nH]c(=O)n3C)cc1	inconclusive [inhibitor, single point]
CC(=O)c1ccc(OCC(O)CN2CCN(S(=O)(=O)c3c(C)c(C)cc(C)c3C)CC2)cc1 (stereo unspecified)	inactive
O=C(NCc1cccs1)c1cc2ccccc2o1	inconclusive [inhibitor, partial curve, poor fit]
COC(=O)c1sccc1S(=O)(=O)N(CC(=O)NCc1ccc(C)cc1)c1ccccc1	inactive
CC(C)C(=O)Nc1cccc(-c2nc3ccccc3o2)c1	inconclusive [inhibitor, single point]
CS(=O)(=O)CCC(C(=O)n1nnc2ccccc21)N1C(=O)c2ccccc2C1=O (stereo unspecified)	inconclusive [inhibitor, partial curve, poor fit]
CC(C)CCn1c(=O)c2cccnc2n(CC(=O)Nc2ccccc2)c1=O	inconclusive [inhibitor, single point]
CCCCNC(=S)Nc1ccc(F)cc1	inconclusive [inhibitor, single point]
Cc1oc(-c2ccc(C(=O)NCCC(C)C)cc2)nc1CS(=O)(=O)c1ccccc1	inactive
Cc1onc(-c2ccccc2)c1C(=O)Nc1ccc(S(=O)(=O)N2CCCCC2)cc1	inconclusive [inhibitor, full curve]
CCCCn1c(N)c(N(CC(C)C)C(=O)CSCC(=O)Nc2ccc(OC)cc2)c(=O)[nH]c1=O	inconclusive [inhibitor, full curve, poor fit]
O=C(CN1C(=O)NC2(CCCC2)C1=O)OCCOc1ccccc1	inconclusive [inhibitor, full curve, poor fit]

SMILES	Potency
CN(C(=O)NC1CC(=O)N(c2ccc3c(c2)OCCO3)C1)c1ccccc1 (stereo unspecified)	inconclusive [inhibitor, full curve]
CN(c1ccc(OCC(=O)NC2CCCC2)cc1)S(=O)(=O)c1cccs1	inconclusive [inhibitor, full curve, poor fit]
Nc1ncc(-c2cc3ccccc3oc2=O)s1	inconclusive [inhibitor, full curve]
CCNS(=O)(=O)c1ccc(NC(=O)c2ccccc2OCC)cc1	inconclusive [inhibitor, full curve, poor fit]
CCOc1ccc(CNCCCSc2ncccn2)cc1OC	inconclusive [inhibitor, full curve, poor fit]
COc1ccc(C(=S)N2CCOCC2)cc1OS(=O)(=O)c1ccccc1[N+](=O)[O-]	inconclusive [inhibitor, full curve, poor fit]
O=C(Nc1ccccc1)OCc1cc(-c2ccc(Cl)cc2)on1	inconclusive [inhibitor, full curve]
Cc1ccc(CC2S/C(=C(/C#N)C(=O)NCc3ccco3)N(c3ccccc3)C2=O)cc1 (stereo unspecified)	inconclusive [inhibitor, full curve]
COc1ccc(-c2nc(SCc3ccccc3)n(C(=O)c3ccco3)n2)cc1	inactive
O=C(NCC(c1cccnc1)N1CCN(c2ccccc2F)CC1)c1ccco1 (stereo unspecified)	inconclusive [inhibitor, full curve]
Cc1ccccc1NS(=O)(=O)c1ccc(C(=O)N2CCN(c3ccccn3)CC2)cc1	inactive
CS/C(=C\[N+](=O)[O-])Nc1ccc(OC(F)(F)F)cc1	inactive
C/C(=N\NC(=O)c1cccc2ccccc12)c1ccccn1	inactive
COC(Cc1ccccc1N1CCCC1=O)OC	inconclusive [inhibitor, full curve, poor fit]
Cc1[nH]c(=O)[nH]c(=O)c1S(=O)(=O)N1CCC(C(=O)NC(C)c2ccccc2)CC1 (stereo unspecified)	inconclusive [inhibitor, partial curve]
COC(=O)CCS(=O)(=O)c1nc(-c2ccccc2)cc(C(F)(F)F)n1	inconclusive [inhibitor, single point]
O=C(Oc1ccccc1C(=O)N1CCOCC1)c1cccc(Br)c1	inconclusive [inhibitor, full curve, poor fit]
NS(=O)(=O)c1ccc(NC(=O)C(Sc2ccccc2)c2ccccc2)cc1 (stereo unspecified)	inconclusive [inhibitor, full curve, poor fit]
Cn1ccc(C(=O)NC(=S)N2CCSCC2)n1	inactive
O=C(COC(=O)c1cccc(S(=O)(=O)N2CCc3ccccc32)c1)Nc1ncc(Cl)cc1Cl	inconclusive [inhibitor, full curve, poor fit]
N#Cc1ccc(-c2csc(NC(=O)C3CC3)n2)cc1	inconclusive [inhibitor, full curve, poor fit]
COC(=O)[C@@]1(Cc2ccc(F)cc2)[C@H]2c3cc(C(=O)N4CCCC4)n(CCc4c[nH]c5ccc(OC)cc45)c3C[C@H]2CN1C(=O)c1ccccc1	inconclusive [inhibitor, full curve, poor fit]

SMILES	Potency
COc1ccc(-n2c(SCC(=O)N3CCCC(C)C3)nnc2-c2cccnc2)cc1 (stereo unspecified)	inconclusive [inhibitor, partial curve]
O=C(O)CN=CC1=C(O)CC(c2ccccc2)CC1=O (stereo unspecified)	inconclusive [inhibitor, partial curve]
COc1cc2nc(NCC3CCCO3)n3nc(-c4cccnc4)nc3c2cc1OC (stereo unspecified)	inconclusive [inhibitor, full curve, poor fit]
O=C(NNC(=O)c1ccccc1F)c1ccc(NS(=O)(=O)c2ccc(F)cc2)cc1	inconclusive [inhibitor, single point]
O=C(CNC(=O)c1ccc(Cl)cc1)OCc1nc2ccccc2s1	inconclusive [inhibitor, partial curve, poor fit]
COC(=O)c1ccccc1NC(=O)c1ccc(NS(C)(=O)=O)cc1	inconclusive [inhibitor, partial curve]
O=C(COC(=O)CCC(=O)c1ccccc1)NCCc1ccccc1	inconclusive [inhibitor, single point]
O=C(/C=C/c1ccco1)N1CCc2ccccc21	inactive
CCOc1ccc(NC(=S)c2ccncc2)cc1	inconclusive [inhibitor, full curve]
COc1ccc(C(=O)NCC(c2cccs2)N2CCc3ccccc32)c(OC)c1 (stereo unspecified)	inconclusive [inhibitor, single point]
COCCCNC(=O)CCc1nc(-c2ccccc2Cl)no1	inconclusive [inhibitor, full curve, poor fit]
Cc1cc(N/N=C/c2ccc(O)cc2)c2cccc(C)c2n1	inactive
Cc1nnc(N(Cc2ccccc2)C(=O)c2cnccn2)s1	inconclusive [inhibitor, partial curve, poor fit]
CCc1ccc(S(=O)(=O)N/N=C\c2ccc([N+](=O)[O-])o2)cc1	inconclusive [inhibitor, full curve]
CC(C)CNC(=O)N1CCN(S(=O)(=O)c2ccc3c(ccn3C)c2)CC1	inactive
CCn1c(SCC(=O)Nc2cc3oc4ccccc4c3cc2OC)nnc1-c1cccs1	inactive
CCOc1ccc(NC(=O)c2oc3ccccc3c2NC(=O)C2CCCCC2)cc1	inactive
O=C(COC(=O)C1CC1)NCCNC(=O)COC(=O)C1CC1	inconclusive [inhibitor, full curve, poor fit]
CCSc1nc2nn(-c3ccccc3)c(=O)c-2c2n1CCCCC2	inactive
Cn1cc(-c2cc3n(n2)CCC(=O)N3CCCC(=O)NCc2ccc(F)cc2)c2ccccc21	inconclusive [inhibitor, full curve, poor fit]
CN(C)S(=O)(=O)c1ccc(N2CCCC2)c(C(=O)N2CCN(S(=O)(=O)c3cccc(F)c3)CC2)c1	inconclusive [inhibitor, partial curve, poor fit]
COc1ccc2[nH]c(C(=O)O)c(NS(=O)(=O)c3ccc(OC)c(OC)c3)c2c1	inconclusive [inhibitor, single point]
